The supplement of paper PMC11741623
Some of the results follow. Interaction screen of human proteins with wild-type SARS-CoV-2 proteins by split-DHFR complementation in yeast, 1 µg/mL methotrexate. Value = fitness of the pair (three or more lineages) minus that of the viral protein without a human partner, on a scale set by negative (0) and fused positive (1) controls, mean of up to three cultures; higher = more likely to interact. Active = false discovery rate below 0.05 (one-sided t-test) in at least one culture. Nearly all pairs are not hits, and differences among them are mostly noise (correlation between cultures about 0.3); most hits were seen in one culture only. Human sequences are the Swiss-Prot entries looked up by gene name; the clone may be another isoform. NSP2 values were corrected by the authors for a growth advantage. Listed are human proteins with a hit and a random twelfth of the others.

Key:
Test in all cases: yeast fitness gain over the viral ORF with no human partner (scaled fitness); higher = more likely to interact
SARS-CoV-2 E = target: SARS-CoV-2 E
Method: (§1)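 Split mouse DHFR complementation in pooled diploid yeast: human ORFeome clones carry one fragment and viral ORFs the other; barcoded lineages compete in 1 µg/mL methotrexate and fitness is read by barcode sequencing in up to three cultures.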

SARS-CoV-2 M = target: SARS-CoV-2 M
Method: as §1

SARS-CoV-2 N = target: SARS-CoV-2 N
Method: as §1

SARS-CoV-2 NSP1 = target: SARS-CoV-2 NSP1
Method: as §1

SARS-CoV-2 NSP10 = target: SARS-CoV-2 NSP10
Method: as §1

SARS-CoV-2 NSP12 = target: SARS-CoV-2 NSP12
Method: as §1

SARS-CoV-2 NSP13 = target: SARS-CoV-2 NSP13
Method: as §1

SARS-CoV-2 NSP14 = target: SARS-CoV-2 NSP14
Method: as §1

SARS-CoV-2 NSP15 = target: SARS-CoV-2 NSP15
Method: as §1

SARS-CoV-2 NSP16 = target: SARS-CoV-2 NSP16
Method: as §1

SARS-CoV-2 NSP2 = target: SARS-CoV-2 NSP2
Method: as §1

SARS-CoV-2 NSP4 = target: SARS-CoV-2 NSP4
Method: as §1

SARS-CoV-2 NSP5 = target: SARS-CoV-2 NSP5
Method: as §1

SARS-CoV-2 NSP6 = target: SARS-CoV-2 NSP6
Method: as §1

SARS-CoV-2 NSP7 = target: SARS-CoV-2 NSP7
Method: as §1

SARS-CoV-2 NSP8 = target: SARS-CoV-2 NSP8
Method: as §1

SARS-CoV-2 NSP9 = target: SARS-CoV-2 NSP9
Method: as §1

SARS-CoV-2 ORF10 = target: SARS-CoV-2 ORF10
Method: as §1

SARS-CoV-2 ORF3A = target: SARS-CoV-2 ORF3A
Method: as §1

SARS-CoV-2 ORF3B = target: SARS-CoV-2 ORF3B
Method: as §1

SARS-CoV-2 ORF6 = target: SARS-CoV-2 ORF6
Method: as §1

SARS-CoV-2 ORF7A = target: SARS-CoV-2 ORF7A
Method: as §1

SARS-CoV-2 ORF7B = target: SARS-CoV-2 ORF7B
Method: as §1

SARS-CoV-2 ORF8 = target: SARS-CoV-2 ORF8
Method: as §1

SARS-CoV-2 ORF9B = target: SARS-CoV-2 ORF9B
Method: as §1

[1] = target: SARS-CoV-2 ORF9Bwu (the 73-codon ORF)
Method: as §1

SARS-CoV-2 S = target: SARS-CoV-2 S
Method: as §1

Measured: yeast fitness gain

B1: IKZF3, Q9UKT9 (protein)
chain: MEDIQTNAELKSTQEQSVPAESAAVLNDYSLTKSHEMENVDSGEGPANEDEDIGDDSMKVKDEYSERDENVLKSEPMGNAEEPEIPYSYSREYNEYENIKLERHVVSFDSSRPTSGKMNCDVCGLSCISFNVLMVHKRSHTGERPFQCNQCGASFTQKGNLLRHIKLHTGEKPFKCHLCNYACQRRDALTGHLRTHSVEKPYKCEFCGRSYKQRSSLEEHKERCRTFLQSTDPGDTASAEARHIKAEMGSERALVLDRLASNVAKRKSSMPQKFIGEKRHCFDVNYNSSYMYEKESELIQTRMMDQAINNAISYLGAEALRPLVQTPPAPTSEMVPVISSMYPIALTRAEMSNGAPQELEKKSIHLPEKSVPSERGLSPNNSGHDSTDTDSNHEERQNHIYQQNHMVLSRARNGMPLLKEVPRSYELLKPPPICPRDSVKVINKEGEVMDVYRCDHCRVLFLDYVMFTIHMGCHGFRDPFECNMCGYRSHDRYEFSSHIARGEHRALLK
inactive: SARS-CoV-2 E -0.0405 | SARS-CoV-2 M 0.0392 | SARS-CoV-2 N 0.0842 | SARS-CoV-2 NSP1 = -0.117 | SARS-CoV-2 NSP10 = 0.00147 | SARS-CoV-2 NSP12 = 0.0752 | SARS-CoV-2 NSP13 = -0.0081 | SARS-CoV-2 NSP14 = 0.0187 | SARS-CoV-2 NSP15 = 0.023 | SARS-CoV-2 NSP16 = -0.000152 | SARS-CoV-2 NSP2 = -0.105 | SARS-CoV-2 NSP4 = 0.135 | SARS-CoV-2 NSP5 = -0.0298 | SARS-CoV-2 NSP6 = -0.0512 | SARS-CoV-2 NSP7 = -0.0244 | SARS-CoV-2 NSP8 = -0.0346 | SARS-CoV-2 NSP9 = 0.03 | SARS-CoV-2 ORF10 = -0.00173 | SARS-CoV-2 ORF3A 0.0729 | SARS-CoV-2 ORF3B -0.00537 | SARS-CoV-2 ORF6 = -0.0174 | SARS-CoV-2 ORF7A 0.031 | SARS-CoV-2 ORF7B -0.0366 | SARS-CoV-2 ORF8 = -0.00483 | SARS-CoV-2 ORF9B -0.0154 | [1] 0.0114 | SARS-CoV-2 S 0.0331

B2: IRF9, Q00978 (protein)
chain: MASGRARCTRKLRNWVVEQVESGQFPGVCWDDTAKTMFRIPWKHAGKQDFREDQDAAFFKAWAIFKGKYKEGDTGGPAVWKTRLRCALNKSSEFKEVPERGRMDVAEPYKVYQLLPPGIVSGQPGTQKVPSKRQHSSVSSERKEEEDAMQNCTLSPSVLQDSLNNEEEGASGGAVHSDIGSSSSSSSPEPQEVTDTTEAPFQGDQRSLEFLLPPEPDYSLLLTFIYNGRVVGEAQVQSLDCRLVAEPSGSESSMEQVLFPKPGPLEPTQRLLSQLERGILVASNPRGLFVQRLCPIPISWNAPQAPPGPGPHLLPSNECVELFRTAYFCRDLVRYFQGLGPPPKFQVTLNFWEESHGSSHTPQNLITVKMEQAFARYLLEQTPEQQAAILSLV
inactive: SARS-CoV-2 E -0.215 | SARS-CoV-2 M 0.0443 | SARS-CoV-2 NSP1 = -0.094 | SARS-CoV-2 NSP10 = 0.0527 | SARS-CoV-2 NSP12 = 0.0649 | SARS-CoV-2 NSP13 = 0.0561 | SARS-CoV-2 NSP15 = -0.0158 | SARS-CoV-2 NSP16 = -0.177 | SARS-CoV-2 NSP2 = -0.138 | SARS-CoV-2 NSP5 = -0.00606 | SARS-CoV-2 NSP6 = -0.278 | SARS-CoV-2 NSP7 = 0.0359 | SARS-CoV-2 NSP9 = -0.0165 | SARS-CoV-2 ORF10 = -0.0263 | SARS-CoV-2 ORF3A -0.0604 | SARS-CoV-2 ORF3B -0.0758 | SARS-CoV-2 ORF6 = -0.00482 | SARS-CoV-2 ORF7A -0.205 | SARS-CoV-2 ORF7B 0.04 | SARS-CoV-2 ORF8 = -0.18 | SARS-CoV-2 ORF9B -0.0725 | [1] 0.115 | SARS-CoV-2 S 0.0336

B3: IKZF1, Q13422 (protein)
chain: MDADEGQDMSQVSGKESPPVSDTPDEGDEPMPIPEDLSTTSGGQQSSKSDRVVASNVKVETQSDEENGRACEMNGEECAEDLRMLDASGEKMNGSHRDQGSSALSGVGGIRLPNGKLKCDICGIICIGPNVLMVHKRSHTGERPFQCNQCGASFTQKGNLLRHIKLHSGEKPFKCHLCNYACRRRDALTGHLRTHSVGKPHKCGYCGRSYKQRSSLEEHKERCHNYLESMGLPGTLYPVIKEETNHSEMAEDLCKIGSERSLVLDRLASNVAKRKSSMPQKFLGDKGLSDTPYDSSASYEKENEMMKSHVMDQAINNAINYLGAESLRPLVQTPPGGSEVVPVISPMYQLHKPLAEGTPRSNHSAQDSAVENLLLLSKAKLVPSEREASPSNSCQDSTDTESNNEEQRSGLIYLTNHIAPHARNGLSLKEEHRAYDLLRAASENSQDALRVVSTSGEQMKVYKCEHCRVLFLDHVMYTIHMGCHGFRDPFECNMCGYHSQDRYEFSSHITRGEHRFHMS
inactive: SARS-CoV-2 E -0.0687 | SARS-CoV-2 NSP10 = -0.211 | SARS-CoV-2 NSP12 = -0.0885 | SARS-CoV-2 NSP13 = 0.00093 | SARS-CoV-2 NSP2 = -0.14 | SARS-CoV-2 NSP6 = 0.0172 | SARS-CoV-2 NSP7 = -0.0354 | SARS-CoV-2 NSP8 = 0.0134 | SARS-CoV-2 ORF3B 0.0278 | SARS-CoV-2 ORF7B -0.264 | SARS-CoV-2 ORF8 = -0.156 | SARS-CoV-2 ORF9B 0.0147
